# Measurements as given in PMC4336329 (PLoS ONE, 2015).
# In all, about 310,000 compounds went through this assay and about 14,000 (4.5%) showed an effect of 50% or more. The effect is printed as a negative number. This is one part of the list.
# Target: human ether-à-go-go-related gene (hERG) potassium channel (human, UniProt Q12809)
# Test: primary screen, population patch clamp on CHO cells stably expressing hERG
# 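Note: peak tail current of the secondary pulse compared with the same well before compound.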
# human ether-à-go-go-related gene (hERG) potassium channel, sequence (Q12809 whole entry, looked up): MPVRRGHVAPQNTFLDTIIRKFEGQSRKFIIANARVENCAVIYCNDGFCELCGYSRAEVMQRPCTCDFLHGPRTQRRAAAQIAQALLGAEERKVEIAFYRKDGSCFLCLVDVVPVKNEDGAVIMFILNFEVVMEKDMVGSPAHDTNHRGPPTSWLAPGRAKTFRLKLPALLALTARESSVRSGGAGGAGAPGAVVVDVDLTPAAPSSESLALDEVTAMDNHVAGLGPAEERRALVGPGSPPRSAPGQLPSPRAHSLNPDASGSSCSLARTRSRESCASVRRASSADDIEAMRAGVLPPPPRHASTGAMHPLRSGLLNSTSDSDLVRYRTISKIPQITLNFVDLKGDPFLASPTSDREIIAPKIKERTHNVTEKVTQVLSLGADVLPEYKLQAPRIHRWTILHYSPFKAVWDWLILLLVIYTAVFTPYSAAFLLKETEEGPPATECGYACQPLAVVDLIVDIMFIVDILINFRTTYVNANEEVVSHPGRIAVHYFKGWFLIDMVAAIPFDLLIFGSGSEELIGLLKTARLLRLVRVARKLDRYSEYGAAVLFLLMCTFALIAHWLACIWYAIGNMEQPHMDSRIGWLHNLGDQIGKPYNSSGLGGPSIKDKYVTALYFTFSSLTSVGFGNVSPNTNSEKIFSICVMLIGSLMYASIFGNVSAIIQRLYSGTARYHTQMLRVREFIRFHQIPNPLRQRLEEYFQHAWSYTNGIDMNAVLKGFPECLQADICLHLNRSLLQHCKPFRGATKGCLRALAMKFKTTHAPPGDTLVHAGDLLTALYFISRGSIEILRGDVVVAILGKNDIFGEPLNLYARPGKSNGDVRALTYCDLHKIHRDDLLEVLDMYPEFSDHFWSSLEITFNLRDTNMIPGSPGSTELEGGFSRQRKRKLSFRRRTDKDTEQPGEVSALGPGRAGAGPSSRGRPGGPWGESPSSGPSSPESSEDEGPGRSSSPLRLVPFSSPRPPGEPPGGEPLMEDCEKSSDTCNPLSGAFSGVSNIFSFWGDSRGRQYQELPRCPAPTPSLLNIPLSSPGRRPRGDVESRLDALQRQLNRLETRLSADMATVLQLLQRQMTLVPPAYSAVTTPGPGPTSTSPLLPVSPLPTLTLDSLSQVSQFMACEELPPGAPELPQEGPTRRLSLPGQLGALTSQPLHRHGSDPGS
row,Structure (SMILES),"hERG current change (%, negative = inhibition) at 10uM [%]"
1,CC1CC(C)CN(CCCNC(=O)CCC(=O)N2CC(C)Oc3ccccc32)C1 (centres unmarked),-32.2
2,Cc1cc(C)nc(NC(=O)c2cccc([N+](=O)[O-])c2)c1,-3.84
3,Cn1c(=O)c2cc(NCc3ccccc3)nnc2n(C)c1=O,3.39
4,Cc1ccc([C@@H]2[C@@H]3C(=O)N(c4ccccc4)C(=O)[C@@H]3[C@]3(Cc4ccccc4)C(=O)N(CC4CC4)CC(=O)N23)o1,0.669
5,CCOC(=O)N1CCN(C(=O)c2ccc(NS(=O)(=O)c3ccc(F)cc3)cc2)CC1,-1.81
6,COc1ccc(-c2cc([C@H]3[C@H]4C=CC[C@@H](C)[C@@H]4C(=O)N3Cc3ccccc3)ccc2F)cc1OC,-5.13
7,O=C(CCNC(=O)c1ccc(Br)cc1)NCCCN1CCOCC1,11.1
8,CC(C)C[C@@H](N)c1nnc(SCC(=O)c2ccc(Cl)cc2)o1.Cl,-37.1
9,CCOC(=O)CSc1nc(C(C)(C)C)nc2ccccc12,4.41
10,CC(C)n1nc(CC(=O)O)c2ccccc2c1=O,-1.71
11,COc1ccc(C(=O)NN/C(C)=C/C(=O)c2ccccc2)cc1,4.41
12,COc1cc2c(cc1OC)C1Cc3ccc(OC)c(OC)c3CN1CC2.Cl (centres unmarked),-6.39
13,Cc1ccsc1CN(C)CC(=O)Nc1ccc([N+](=O)[O-])cc1Cl,18.5
14,Cn1nc(C(F)(F)F)c(C(=O)Nc2ccc(F)cc2F)c1Sc1ccc(C(F)(F)F)cc1,-3.39
15,CCC1(C)Cc2ccccc2/C(=C/C(=O)N2CCCCC2)N1.Cl (centres unmarked),-0.76
16,Cc1ncsc1CCOC(=O)c1ccc(Cl)cc1,-10.3
17,Cc1ccc(C)c(S(=O)(=O)Nc2cc3c4c(c2)CCN4C(=O)CC3)c1,-8.33
18,CCC1(C)NC(=O)N(CC(=O)Nc2sc3c(c2C(=O)OC)CCCCC3)C1=O (centres unmarked),5.93
19,Cc1ccc(C(=O)OCC(=O)NCc2ccco2)cc1S(=O)(=O)N1CCOCC1,-4.94

row,Structure (SMILES),"hERG current change (%, negative = inhibition) at 10uM [%]"
1,O=S(=O)(CCN1CCN(c2ccccn2)CC1)c1ccc(F)cc1,-10.2
2,CCN(CC)C(=O)C1CCCN(c2ccc([N+](=O)[O-])cc2/C=N/NC(=O)c2cccc(O)c2)C1 (centres unmarked),-16.9
3,Cc1cc(C)c(S(=O)(=O)NCC(c2ccco2)N2CCc3ccccc3C2)c(C)c1 (centres unmarked),5.85
4,CCSc1ccccc1C(=O)N1CCN(Cc2ccc3c(c2)OCO3)CC1,2.37
5,Cc1ccnc(NC(=O)Cn2ccc([N+](=O)[O-])n2)c1,-8.91
6,O=C(NCc1ccc(F)cc1)N[C@@H](Cc1ccccc1)C(=O)O,7.44
7,Cc1cccc(NC(=O)CSCC(=O)NCc2ccco2)c1,-1.34
8,CCCC(=O)C1=C(O)C(C(=O)OC)C(C)(C)CC1=NCCc1ccc(OC)c(OC)c1 (centres unmarked),-25.4
9,O=C(NC1CCCCCC1)c1ccc(CS(=O)(=O)Cc2ccc(F)cc2)o1,3.52
10,NC(=O)c1cc([N+](=O)[O-])ccc1NCCN1C(=O)c2ccccc2C1=O,3.2
11,COc1cccc2cc(/C(=N/O)c3ccc(Br)cc3)oc12,5.41
12,O=C(CCc1nc(-c2ccccc2F)no1)N1CCC2(CC1)OCCO2,6.67
13,Cc1[nH]c2ccc(C(=O)NCc3ccccn3)cc2c1C,18.4
14,COCc1c(C(=O)N/N=C/c2ccco2)nnn1-c1nonc1N,18
15,Cc1ccc(SCc2cc(=O)[nH]c(N3CCCCC3)n2)cc1,-8.62
16,CCn1cc(S(=O)(=O)NCc2ccc3c(c2)OCO3)cn1,0.165
17,COc1ccccc1NC(=O)c1coc(=O)c(Br)c1,8.72
18,CC1CCN(c2ccc(C(=O)O)cc2N)CC1,10.2
19,CN(C)C(=O)Cn1c(=O)n(S(=O)(=O)c2ccccc2)c2ccccc21,9.25

row,Structure (SMILES),"hERG current change (%, negative = inhibition) at 10uM [%]"
1,CCC(C)NC(=O)CCSCCC(=O)NC(C)CC (centres unmarked),17.4
2,Nc1cc(=O)[nH]c(SCC(=O)Nc2ncc(C(F)(F)F)cc2Cl)n1,20
3,CC1CCN(C(=O)CCNS(=O)(=O)c2ccc3c(c2)oc(=O)n3C)CC1,22.1
4,CC1(C)CC(NC(=O)c2cccc3ccccc23)CC(C)(C)N1,9.24
5,CCN(CC)S(=O)(=O)c1cc(OC)c(Cl)cc1OC,9
6,CCOC(=O)CSc1nnc2c3ccccc3n(CC)c2n1,6.98
7,Cc1ccc(-c2csc(Cc3nc(-c4cc5ccccc5oc4=O)cs3)n2)cc1,4.35
8,CS(=O)(=O)c1ccc(Cl)c(NC(=O)C2CCCN(C(=O)c3ccc(Cl)cc3)C2)c1 (centres unmarked),-20.1
9,CC(C)(C)NS(=O)(=O)c1cc(C(=O)O)ccc1Cl,4.6
10,CCNC(=O)/C(=C\c1ccccc1)NC(=O)/C=C/c1ccccc1,-25.7
11,O=C(N[C@@H](CO)C(=O)NCc1ccccc1)c1ccc(C(F)(F)F)cc1,-0.237
12,CCOC(=O)C1(Cc2ccccc2C)CCCN(C(=O)c2ccc(OC)o2)C1 (centres unmarked),-24.4
13,CC(C)C[C@H](NC(=O)NCCc1ccc(Cl)cc1)C(=O)O,4.28
14,CCc1cc2c(=O)c(-c3nc4ccccc4n3C)coc2c(CN2CCOCC2)c1O,-23.7
15,COc1cc2c(cc1OC)C(=O)CC(C)S2 (centres unmarked),15.7
16,Cc1c(NC(=O)c2noc(C(C)C)c2[N+](=O)[O-])c(=O)n(-c2ccccc2)n1C,8.49
17,CCN(C(=O)COC(=O)c1cnc(C)cn1)C1CCCCC1,-0.161
18,COC(=O)c1cccc(NC(=S)NCc2ccco2)c1,-13.3
